# Source: patent publication US20080280910A1, “PHTHALAZINONE DERIVATIVES” (priority 2007, published 2008)
# Where “and” joins values, the source holds several entries; their conditions need not be identical. Equal entries are not always repeated.
# Molecular target: Mammalian PARP, isolated from Hela cell nuclear extract (Homo sapiens, UniProt P09874)
# Test: PARP inhibition assay (FlashPlate, 3H-NAD incorporation) to determine IC50
# Type: biochemical
# Details: mean IC50
# Procedure, shortened: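 PARP from HeLa nuclear extract was preincubated with compound (final 10–0.01 μM, 1% DMSO) for 10 min at 30 °C. Reactions were started with 5 μM NAD, ³H-NAD and 30mer double-stranded DNA oligos, run 45 min at 30 °C and quenched with acetic acid. Scintillation counts against control wells gave % activity and IC50.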
row,SMILES,IC50
1,O=Cc1ccccc1-c1cccc(Cc2n[nH]c(=O)c3ccccc23)c1 [Compound 39],201 nM
2,O=Cc1ccc(-c2cccc(Cc3n[nH]c(=O)c4ccccc34)c2)cc1 [Compound 21],196 nM
3,Cc1oncc1S(=O)(=O)Nc1cccc(-c2cc(Cc3n[nH]c(=O)c4ccccc34)ccc2F)c1 [Compound 159],35 nM
4,O=C(NCCN1CCCC1)c1cccc(-c2cc(Cc3n[nH]c(=O)c4ccccc34)ccc2F)c1 [Compound 125],258 nM
5,CCN1CCN(C(=O)c2cccc(-c3cc(Cc4n[nH]c(=O)c5ccccc45)ccc3F)c2)CC1 [Compound 117],1100 nM
6,O=C(c1cccc(-c2ccc(Cc3n[nH]c(=O)c4ccccc34)cc2)c1)N1CCSCC1 [Compound 170],1890 nM
7,O=c1[nH]nc(Cc2ccc(F)c(-c3ccc(CN4CCN(C5CCCCC5)CC4)o3)c2)c2ccccc12 [Compound 239],89 nM
8,O=c1[nH]nc(Cc2ccc(F)c(-c3ccc(CN4CCOCC4)o3)c2)c2ccccc12 [Compound 236],45 nM
9,O=C(c1cccc(-c2ccc(Cc3n[nH]c(=O)c4ccccc34)cc2)c1)N1CCCC1 [Compound 171],1990 nM
10,O=c1[nH]nc(Cc2ccc(F)c(-c3ccc(NS(=O)(=O)CCC4CCCCC4)cc3)c2)c2ccccc12 [Compound 246],41 nM
11,O=c1[nH]nc(Cc2ccc(F)c(-c3ccc(NS(=O)(=O)CC4CCCCC4)cc3)c2)c2c1CCCC2 [Compound 261],7 nM
12,O=c1[nH]nc(Cc2ccc(F)c(-c3ccc(CNCc4ccc(F)cc4)o3)c2)c2ccccc12 [Compound 230],30 nM
13,O=c1[nH]nc(Cc2ccc(F)c(-c3ccco3)c2)c2ccccc12 [Compound 53],14 nM
14,CN1CCCN(C(=O)c2ccc(-c3cc(Cc4n[nH]c(=O)c5ccccc45)ccc3F)cc2)CC1 [Compound 218],1700 nM
15,O=c1[nH]nc(Cc2cccc(-c3ccc(Cl)cc3)c2)c2ccccc12 [Compound 40],297 nM
16,CC1CCN(C(=O)c2cccc(-c3cncc(Cc4n[nH]c(=O)c5ccccc45)c3)c2)CC1 [Compound 112],1200 nM
17,O=c1[nH]nc(Cc2ccnc(-c3ccc(NS(=O)(=O)CC4CCOC4)cc3)c2)c2ccccc12 (stereo not shown) [Compound 252],9 nM and 8 nM
18,O=c1[nH]nc(Cc2cccc(-c3ccsc3)c2)c2c(F)ccc(F)c12 [Compound 103],403 nM
19,COC(=O)c1ccccc1-c1cccc(Cc2n[nH]c(=O)c3ccccc23)c1 [Compound 9],914 nM

# The next lines start with the values.
row,IC50,SMILES
1,489 nM,O=c1[nH]nc(Cc2ccc(F)c(-c3cccc(OCc4ccccc4)c3)c2)c2ccccc12 [Compound 68]
2,33 nM,O=C(Nc1cccc(-c2cc(Cc3n[nH]c(=O)c4ccccc34)ccc2F)c1)c1ccccc1 [Compound 130]
3,32 nM,N#Cc1ccc(S(=O)(=O)Nc2ccc(-c3cc(Cc4n[nH]c(=O)c5ccccc45)ccc3F)cc2)cc1 [Compound 210]
4,211 nM,N#Cc1cccc(C(=O)Nc2ccc(-c3cc(Cc4n[nH]c(=O)c5ccccc45)ccc3F)cc2)c1 [Compound 191]
5,196 nM,O=C(Nc1ccc(-c2cc(Cc3n[nH]c(=O)c4ccccc34)ccc2F)cc1)c1ccno1 [Compound 178]
6,38 nM,Nc1ccc(-c2cc(Cc3n[nH]c(=O)c4ccccc34)ccc2F)cc1 [Compound 66]
7,27 nM,O=c1[nH]nc(Cc2ccc(F)c(-c3ccc(NS(=O)(=O)c4ccc(Cl)s4)cc3)c2)c2ccccc12 [Compound 213]
8,175 nM,COC(=O)/C=C/c1ccc(-c2cc(Cc3n[nH]c(=O)c4ccccc34)ccc2F)cc1 [Compound 70]
9,78 nM,O=C(Nc1ccc(-c2cc(Cc3n[nH]c(=O)c4ccccc34)ccc2F)cc1)c1cncnc1 [Compound 181]
10,218 nM,Cn1nccc1C(=O)Nc1ccc(-c2cc(Cc3n[nH]c(=O)c4ccccc34)ccc2F)cc1 [Compound 182]
11,277 nM,CCCCCC(C)C(=O)Nc1ccc(-c2cc(Cc3n[nH]c(=O)c4ccccc34)ccc2F)cc1 (stereo not shown) [Compound 190]
12,9 nM,CC(=O)Nc1cccc(-c2cc(Cc3n[nH]c(=O)c4ccccc34)ccc2F)c1 [Compound 127]
13,554 nM,CN1CCC(C(=O)Nc2ccc(-c3cc(Cc4n[nH]c(=O)c5ccccc45)ccc3F)cc2)CC1 [Compound 189]
14,85 nM,O=c1[nH]nc(Cc2ccc(F)c(-c3ccccc3)c2)c2ccccc12 [Compound 59]
15,155 nM,O=C(Nc1ccc(-c2cc(Cc3n[nH]c(=O)c4ccccc34)ccc2F)cc1)c1cccs1 [Compound 184]
16,119 nM,O=C(Cc1ccncc1)Nc1ccc(-c2cc(Cc3n[nH]c(=O)c4ccccc34)ccc2F)cc1 [Compound 196]
17,412 nM,O=c1[nH]nc(Cc2ccc(F)c(-c3cccc4cnccc34)c2)c2ccccc12 [Compound 75]
18,67 nM,O=C(Nc1ccccc1)Nc1ccc(-c2cc(Cc3n[nH]c(=O)c4ccccc34)ccc2F)cc1 [Compound 201]
